doi:10.1101/325712 (bioRxiv, 2018)

T1: human FLNC domains 18-21 (residues 1943-2408), EEF-tagged (human, UniProt Q14315 1943-2408)
T1 sequence: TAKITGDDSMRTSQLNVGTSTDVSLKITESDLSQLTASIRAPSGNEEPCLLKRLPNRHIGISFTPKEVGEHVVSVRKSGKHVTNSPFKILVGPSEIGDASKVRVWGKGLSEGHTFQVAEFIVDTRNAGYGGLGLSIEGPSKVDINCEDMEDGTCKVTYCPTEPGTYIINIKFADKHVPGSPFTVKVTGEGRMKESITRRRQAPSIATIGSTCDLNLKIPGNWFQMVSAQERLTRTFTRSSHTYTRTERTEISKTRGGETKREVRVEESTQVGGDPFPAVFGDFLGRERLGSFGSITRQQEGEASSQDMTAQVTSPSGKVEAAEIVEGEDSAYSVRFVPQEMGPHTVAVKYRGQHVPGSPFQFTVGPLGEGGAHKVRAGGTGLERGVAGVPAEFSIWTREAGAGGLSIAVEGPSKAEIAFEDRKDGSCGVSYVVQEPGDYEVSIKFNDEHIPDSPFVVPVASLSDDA

B1: human HspB1 […], double phosphomimic (S78E, S82D) (domain or fragment)
chain: not shown
B2: full-length human HspB1 triple phosphomimic (S15D, S78D, S82D) (natural protein)
chain: not shown
B3: human HspB1 […], WT (domain or fragment)
chain: not shown
B4: human HspB1 […], single phosphomimic at Ser82 (domain or fragment)
chain: not shown

Experiments:
native MS = target: the molecule itself; assay: native MS
[1] = target: T1, human FLNC domains 18-21 (residues …); assay: co-sedimentation

Binder	binding result (native MS)	further results
B1	binds	–
B2	–	binding result [1]: binds
B3	–	stoichiometry N (native MS): 2
B4	binds	–
